Experimental data from the supplement of paper PMC10723795.
Where a name gives a salt, the structure may show the parent alone. The list shows a part of the results.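 How the source made its calls: active = more than 2 SD below the DMSO mean: under 0.85 at 10 µM or 0.885 at 1 µM; inactive = the rest.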 Most values come without repeats; read them as rough.

Test system: RPE1
Experiment: nucleolar normality score relative to DMSO (fraction of DMSO control); RPE1 is a non-cancer human cell line; higher = more normal nucleoli (less nucleolar stress)
Conditions: 24 h
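Further: fixed cells immunolabelled for nucleolin and UBF, 40 image fields per well in 384-well plates, per-cell score = nucleolin nucleolar/nucleoplasm intensity ratio divided by the matching UBF ratio.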

Row | Structure (SMILES) | nucleolar normality score (1 µM) | nucleolar normality score (10 µM)
1 | O=C(/C=C/c1ccc(O)cc1)CC(=O)/C=C/c1ccc(O)cc1 [Bisdemethoxycurcumin (BDMC)] | inactive: 0.992 | active: 0.809
2 | COc1cc2c(Oc3ccc(NC(=O)C4(C(=O)Nc5ccc(F)cc5)CC4)cc3F)ccnc2cc1OCCCN1CCOCC1 | inactive: 1.01 | inactive: 1.04
3 | COc1cc(N2CCC(N(C)C)CC2)ccc1Nc1ncc(Cl)c(Nc2ccccc2P(C)(C)=O)n1 | active: 0.692 | active: 0.65
4 | C#Cc1cccc(Nc2ncnc3cc(OCCOC)c(OCCOC)cc23)c1 [Erlotinib] | inactive: 1.06 | inactive: 1.04
5 | NC(=O)c1cnc(N[C@@H]2CCCC[C@@H]2N)nc1Nc1cccc(-n2nccn2)c1 | inactive: 0.95 | inactive: 0.963
6 | Cc1ccc(-c2nn(C(C)(C)C)c3ncnc(N)c23)cc1 | inactive: 0.968 | active: 0.816
7 | CC/C(=C(\c1ccc(O)cc1)c1ccc(OCCN(C)C)cc1)c1ccccc1 [4-Hydroxytamoxifen] | inactive: 0.992 | inactive: 1.04
8 | Cc1c(C(=O)C=Cc2ccccc2)[n+](=O)c2ccccc2n1[O-] [Quinocetone] | inactive: 1.01 | inactive: 1.09
9 | CC1(C)O[C@H]2CC(=O)OC[C@]23[C@H]2CC[C@@]4(C)[C@H](c5ccoc5)OC(=O)[C@H]5O[C@]54[C@]2(C)C(=O)C[C@@H]13 [Limonin] | inactive: 0.965 | inactive: 0.882
10 | Cc1cc(C)c(CNC(=O)c2cc(-c3ccc(CN4CCOCC4)cc3)cc3c2cnn3C2CCCC2)c(=O)[nH]1 | inactive: 1.03 | inactive: 1.03
11 | NC(=O)c1cccc(-c2cc(Nc3ccc(OC(F)(F)F)cc3)ncn2)c1 | inactive: 1.08 | inactive: 0.946
12 | COc1ccc(Oc2cc(NCCC(F)(F)F)c3ncc(-c4ccc(C(=O)NC5CC5)c(C)c4)n3n2)c(F)c1F | inactive: 0.888 | inactive: 0.87
13 | C[C@@H](Nc1cc(F)cc(F)c1)c1cc(C(=O)N(C)C)cc2c(=O)cc(N3CCOCC3)oc12 | active: 0.853 | inactive: 0.992
14 | CCOC(=O)c1cnc2ccc(-c3cncc(NS(=O)(=O)c4ccccc4)c3)cn12 | inactive: 0.994 | inactive: 0.967
15 | CC(C)=CCCC(C)(O)C1CCC2(C)C1C(O)CC1C3(C)CCC(O)C(C)(C)C3CCC12C [(20S)-Protopanaxadiol] | inactive: 1.04 | inactive: 1.03
16 | O=C(NCC1(c2nc(-c3ccccc3)cs2)CCOCC1)c1cccc(-c2noc(C(F)(F)F)n2)c1 | inactive: 1.05 | inactive: 1.05
17 | O=C(O)C(=O)O.[NH-][C@@H]1CCCC[C@H]1[NH-].[Pt+2] [Oxaliplatin] | active: 0.618 | inactive: 1.04
18 | Cc1ccc(NC(=O)c2ccc(CN3CCN(C)CC3)cc2)cc1Nc1nccc(-c2cccnc2)n1 [Imatinib (STI571)] | inactive: 1.04 | inactive: 0.93
19 | CCc1c2c(nc3ccc(O)cc13)-c1cc3c(c(=O)n1C2)COC(=O)[C@]3(O)CC | active: 0.631 | active: 0.511
20 | CCc1cc2c(cc1N1CCC(N3CCOCC3)CC1)C(C)(C)c1[nH]c3cc(C#N)ccc3c1C2=O [Alectinib hydrochloride] | inactive: 1.05 | active: 0.333

Row | Structure (SMILES) | nucleolar normality score (1 µM) | nucleolar normality score (10 µM)
21 | COc1cc(OC2CCN(C)CC2)ccc1Nc1ncc2c(n1)n(C1CCCC1)c(=O)n2C | inactive: 1.03 | inactive: 1.03
22 | Cc1cccc(-c2[nH]c(C(C)(C)C)nc2-c2ccc3c(c2)OCO3)n1 | inactive: 1.04 | inactive: 1.11
23 | CC(NC(=O)c1ccccc1/N=C/c1c(O)ccc2ccccc12)c1ccccc1 (stereo unspecified) [Sirtinol] | inactive: 1.1 | inactive: 1.1
24 | CCn1c(C(=O)N(C2CC2)C2CC2)cc2c3c(ncn3C)c(Nc3cc(C)n(C)n3)nc21 | inactive: 1.02 | inactive: 1.09
25 | CCCN1CCCC[C@H]1C(=O)Nc1c(C)cccc1C [Ropivacaine] | inactive: 1.01 | inactive: 1.06
26 | O=C(NCc1ccccc1)c1csc(Nc2ccncn2)n1 [Thiazovivin] | inactive: 1.03 | inactive: 1.03
27 | CNCc1ccc(-c2cc(-c3nc(-c4ccc(S(=O)(=O)C(C)C)cc4)cnc3N)on2)cc1 | active: 0.818 | active: 0.659
28 | NC(=O)c1cccc2cn(-c3ccc([C@@H]4CCCNC4)cc3)nc12 [Niraparib (MK-4827) tosylate] | inactive: 0.894 | inactive: 0.993
29 | O=C(CCc1ccc(O)cc1)c1c(O)cc(O)cc1O [Phloretin] | inactive: 1.09 | inactive: 1.09
30 | Cc1cn(CCN2CCN(c3ccccc3-c3cc(C#N)cc(C(=O)NCCCN4CCCC4)c3)CC2)c2ccccc12 | active: 0.787 | inactive: 0.994
31 | CN(CC(=O)N(Cc1ccc(C2CCCCC2)cc1)c1ccc(C(=O)O)cc1)S(=O)(=O)c1c(F)c(F)c(F)c(F)c1F | inactive: 1.1 | inactive: 0.998
32 | Oc1c(I)cc(Cl)c2cccnc12 [Clioquinol] | inactive: 1.03 | inactive: 1.09
33 | COc1cc2nccc(Oc3ccc(NC(=O)Nc4cc(C)on4)c(Cl)c3)c2cc1OC [Tivozanib (AV-951)] | inactive: 0.989 | inactive: 1.02
34 | CC(C)(C#N)c1cc(Cn2cncn2)cc(C(C)(C)C#N)c1 [Anastrozole] | inactive: 1.03 | inactive: 1.09
35 | COc1cccc(-c2cc(=O)c3ccccc3o2)c1N | inactive: 0.932 | inactive: 1
36 | CNC(=O)c1cccc(-c2ccc3c(N4CCOC[C@@H]4C)nc(N4CCOC[C@@H]4C)nc3n2)c1 [Vistusertib (AZD2014)] | inactive: 0.983 | active: 0.785
37 | CCc1cc(Nc2nccc(-c3c(-c4ccc(OC)c(C(=O)Nc5c(F)cccc5F)c4)nc4ccccn34)n2)c(OC)cc1N1CCC(N2CCN(S(C)(=O)=O)CC2)CC1 | inactive: 0.982 | inactive: 1.02
38 | CNC(=O)c1cc(Oc2ccc(NC(=O)Nc3cc(C(C)(C)C)nn3-c3ccc4ncccc4c3)c(F)c2)ccn1 [Rebastinib (DCC-2036)] | inactive: 1.02 | inactive: 0.86
39 | C[C@]1(O)C[C@@H](c2nc(-c3ccc4ccc(-c5ccccc5)nc4c3)c3c(N)nccn32)C1 [Linsitinib (OSI-906)] | inactive: 1.05 | inactive: 1.05
40 | COc1ccc(C[C@H]2COC(=O)[C@@H]2Cc2ccc(O[C@@H]3O[C@H](CO)[C@@H](O)[C@H](O)[C@H]3O)c(OC)c2)cc1OC [Arctiin] | inactive: 1.05 | inactive: 0.922

Row | Structure (SMILES) | nucleolar normality score (1 µM) | nucleolar normality score (10 µM)
41 | O=C(Nc1ccccc1-c1cn2c(CN3CCNCC3)csc2n1)c1cnc2ccccc2n1 | inactive: 1.03 | inactive: 1.04
42 | N#Cc1cnc(Nc2cc(NC[C@H]3CNCCO3)c(C(F)(F)F)cn2)cn1 | inactive: 1 | inactive: 1
43 | CN(C)CC(=O)Nc1ccc2[nH]c(=O)c3ccccc3c2c1 | inactive: 0.999 | inactive: 1.06
44 | CNC(=O)c1cc(Oc2ccc(NC(=O)Nc3ccc(Cl)c(C(F)(F)F)c3)c(F)c2)ccn1 [Regorafenib (BAY 73-4506)] | inactive: 1.01 | inactive: 1.12
45 | Nc1nc2[nH]cnc2c(=S)[nH]1 [Thioguanine] | inactive: 0.903 | inactive: 0.947
46 | O=C1NC(=NCc2cccs2)S/C1=C\c1ccc2ncccc2c1 | inactive: 1.04 | inactive: 0.938
47 | NC(=O)c1ccc(-c2nc(-c3ccc4c(c3)OCCO4)c(-c3ccccn3)[nH]2)cc1 | inactive: 0.987 | inactive: 1.09
48 | O=C1c2c(O)cccc2C([C@@H]2O[C@H](CO)[C@@H](O)[C@H](O)[C@H]2O)c2cc(CO)cc(O)c21 (stereo partly specified) [Aloin] | inactive: 1.06 | inactive: 0.903
49 | O=C(Nc1cccc(C(F)(F)F)c1)Nc1cc(S(=O)(=O)NC2CC2)ccc1-c1ccsc1 | inactive: 0.997 | inactive: 1.02
50 | C=CCc1cccc(/C=N/NC(=O)CN2CCN(Cc3ccccc3)CC2)c1O | inactive: 1.03 | inactive: 0.905
51 | Cc1cc(O)c2c(c1)C(=O)c1cccc(O)c1C2=O [Chrysophanic Acid] | inactive: 0.985 | inactive: 0.86
52 | O=c1ccc2cc(O)c(O)cc2o1 [Esculetin] | inactive: 0.976 | inactive: 0.866
53 | COCCNCc1ccc(-c2cc3nccc(Oc4ccc(NC(=O)C5(C(=O)Nc6ccc(F)cc6)CC5)cc4F)c3s2)nc1 [Sitravatinib (MGCD516)] | inactive: 0.974 | inactive: 1.02
54 | Cc1c[nH]c(C=C2C(=O)Nc3ccccc32)c1CCC(=O)O | inactive: 0.964 | inactive: 1.04
55 | O=S(=O)(NCCSSCCNS(=O)(=O)c1cc(Cl)ccc1Cl)c1cc(Cl)ccc1Cl | inactive: 0.987 | inactive: 1
56 | CC[C@]1(O)C[C@H]2CN(CCc3c([nH]c4ccccc34)[C@@](C(=O)OC)(c3cc4c(cc3OC)N(C=O)[C@H]3[C@@](O)(C(=O)OC)[C@H](OC(C)=O)[C@]5(CC)C=CCN6CC[C@]43[C@@H]65)C2)C1 [Vincristine sulfate] | inactive: 0.945 | inactive: 0.965
57 | CCOc1cc2ncc(C#N)c(Nc3ccc(F)c(Cl)c3)c2cc1NC(=O)/C=C/CN(C)C [Pelitinib (EKB-569)] | active: 0.814 | inactive: 0.876
58 | C=C1C(=O)[C@]23[C@H](O)[C@H]1CC[C@H]2[C@@]12CO[C@]3(O)[C@@H](O)[C@@H]1C(C)(C)CC[C@@H]2O [Oridonin] | inactive: 0.89 | active: 0.778
